Reference: article PMC4336329 (PLoS ONE, 2015)
The campaign covered roughly 310,000 compounds. About 14,000 (4.5%) showed an effect of 50% or more. The effect is printed as a negative number. Some of the results follow.

Target: human ether-à-go-go-related gene (hERG) potassium channel (human, UniProt Q12809)
Assay: primary screen, population patch clamp on CHO cells stably expressing hERG
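Further: peak tail current of the secondary pulse compared with the same well before compound.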

Sequence of human ether-à-go-go-related gene (hERG) potassium channel (Q12809 whole entry, looked up): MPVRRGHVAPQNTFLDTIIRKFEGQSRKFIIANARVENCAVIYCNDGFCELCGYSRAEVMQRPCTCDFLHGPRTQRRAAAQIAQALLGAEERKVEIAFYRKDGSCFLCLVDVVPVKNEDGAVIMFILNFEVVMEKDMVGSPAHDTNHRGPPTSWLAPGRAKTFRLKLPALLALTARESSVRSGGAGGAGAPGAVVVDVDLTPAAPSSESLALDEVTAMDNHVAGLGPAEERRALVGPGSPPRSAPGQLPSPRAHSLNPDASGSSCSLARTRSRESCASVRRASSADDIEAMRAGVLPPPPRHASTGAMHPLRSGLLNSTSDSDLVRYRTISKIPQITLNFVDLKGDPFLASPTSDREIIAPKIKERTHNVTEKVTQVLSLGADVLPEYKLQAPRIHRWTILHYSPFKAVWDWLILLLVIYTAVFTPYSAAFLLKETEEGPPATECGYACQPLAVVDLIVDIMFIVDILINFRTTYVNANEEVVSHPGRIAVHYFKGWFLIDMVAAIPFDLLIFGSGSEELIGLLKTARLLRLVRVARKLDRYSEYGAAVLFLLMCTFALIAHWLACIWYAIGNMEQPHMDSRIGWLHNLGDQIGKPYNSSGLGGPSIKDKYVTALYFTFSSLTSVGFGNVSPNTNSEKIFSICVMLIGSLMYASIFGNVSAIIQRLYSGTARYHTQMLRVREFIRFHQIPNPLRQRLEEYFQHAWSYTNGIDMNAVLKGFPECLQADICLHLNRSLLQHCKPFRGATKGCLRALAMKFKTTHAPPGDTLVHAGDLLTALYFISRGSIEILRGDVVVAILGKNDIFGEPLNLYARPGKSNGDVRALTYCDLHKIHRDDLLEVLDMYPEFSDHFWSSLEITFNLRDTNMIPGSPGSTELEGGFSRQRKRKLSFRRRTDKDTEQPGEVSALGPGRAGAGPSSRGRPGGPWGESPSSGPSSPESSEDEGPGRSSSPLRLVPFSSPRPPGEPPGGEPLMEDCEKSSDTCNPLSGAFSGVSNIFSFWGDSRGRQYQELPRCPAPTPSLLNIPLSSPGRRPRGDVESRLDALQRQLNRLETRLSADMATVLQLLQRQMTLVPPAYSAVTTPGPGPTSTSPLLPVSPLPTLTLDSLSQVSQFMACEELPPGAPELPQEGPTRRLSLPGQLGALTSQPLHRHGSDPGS

Compound | hERG current change (%, negative = inhibition) at 10uM [%]
CCOC(=O)c1cnc(SCC(=O)OC)nc1N | 52.5
CN(C)c1ccc(/C=C(/NC(=O)c2ccccc2)C(=O)N2CCCC2)cc1 | 11.4
CN1CCN(CCC(=O)Nc2ccc(Br)cc2)CC1 | 12.5
CC1C[N+](=C2C=C(N3CCOCC3)CC(C)(C)C2)CC(C)O1.[I-] (stereo not drawn) | 12.4
CCC1CCC(C(=O)NC(CCSC)C(=O)NCCc2ccc(S(N)(=O)=O)cc2)CC1 (stereo not drawn) | 7.77
CCCc1[nH]nc2c1C(c1ccccc1OC)C(C#N)=C(N)O2 (stereo not drawn) | 3.53
Cc1ccc(NC(=O)c2c([N+](=O)[O-])cnn2C)cc1C | 10.5
N#Cc1cccc(N=Cc2c(O)ccc3ccccc23)c1 | 9.48
Cc1cccc(NC(=O)CN2CCc3cc4c(cc3C2)OCCCO4)c1 | 20.1
O=C(N/C=C\n1cnc2cc(C(F)(F)F)ccc21)c1ccc([N+](=O)[O-])cc1 | -7.31
CCN(CC)CCN(C(=O)CN1C(=O)c2ccccc2C1=O)c1nc2cc3c(cc2s1)OCO3.Cl | -17.8
Cc1ccc2c(c1)C(=O)CCN2 | -13.5
COc1ccc(CNC(=O)COC(=O)/C=C/c2ccc(S(=O)(=O)N3CCOCC3)cc2)cc1 | 16.2
O=C(c1ccco1)N1CCN(S(=O)(=O)c2ccc(S(=O)(=O)NC3CC3)cc2)CC1 | -32
CCOC(=O)Oc1ccc2c(=O)c(Oc3cccc(C)c3)coc2c1 | -23.1
CCOC(=O)N1CCN(C(=O)CSc2ccc3nnc(-c4cccnc4)n3n2)CC1 | -23
Cc1ccc(S(=O)(=O)N2CCCC2CNC(=O)c2ccc3c(c2)OCO3)cc1 (stereo not drawn) | -17.5
C/C(CC(C)C)=N\Oc1nc(C)cc(C)n1 | 26.2
COc1ccc(CC2(CO)CCN(C(C)COc3ccccc3)CC2)cc1 (stereo not drawn) | -82
CC1Cc2ccccc2N1CC(=O)NCc1ccccc1Cl (stereo not drawn) | -14.8
O=C(CCNC(=O)c1ccc([N+](=O)[O-])cc1)NCCCN1CCCC1=O | 6.84
O=C(CN1CCN(c2ccc(F)cc2)CC1)Nc1ccc(-n2cnnn2)cc1 | -5.63
COc1ccc(S(=O)(=O)N2CCCC2=O)cc1N(C)S(C)(=O)=O | 13.8
COc1ccc2ccccc2c1/C=N/NC(=S)Nc1cc(S(=O)(=O)N2CCOCC2)ccc1N1CCOCC1 | 19
